According to PubChem BioAssay AID1468 (National Center for Advancing Translational Sciences (NCATS), 2008):
Where “and” joins values, the source holds several entries; their conditions need not be identical. Identical values can stand only once. Among all 280,000 compounds or so, about 1,100 (0.39%) were called active. The shares of active, inactive and inconclusive entries below differ from those in the screen. Calls come from the whole dose curve; as a rule, active = well fitted inhibition curve with a large enough effect; inconclusive = small, poorly fitted or top-dose-only effect, or effect the other way; inactive = flat fitted curve, though single readings scatter. Potencies beside an inconclusive call are fits to weak or partial responses and may not hold up.

Molecular target: Microtubule-associated protein tau (Homo sapiens) (UniProt P10636)
Assay: qHTS for Inhibitors of Tau Fibril Formation, Fluorescence Polarization; note: nearly all actives have a fitted effect of over 55% in size
Conditions: K18 P301L tau heparin fibrillization, Alexa594 FP, 6 h; series mostly up to 57.7 µM
Summary of the method: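 FP of Alexa 594-tau after heparin (20 uM) induction. Substrate: human K18 P301L, 15 uM unlabeled, 0.24 uM labeled. Buffer 100 mM sodium acetate pH 7. 6 hr, 37 C.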
Potency is the fitted concentration of half-maximal effect; tags give direction and shape of the fitted curve.

Sequence of UniProt P10636 (P10636 whole entry, looked up): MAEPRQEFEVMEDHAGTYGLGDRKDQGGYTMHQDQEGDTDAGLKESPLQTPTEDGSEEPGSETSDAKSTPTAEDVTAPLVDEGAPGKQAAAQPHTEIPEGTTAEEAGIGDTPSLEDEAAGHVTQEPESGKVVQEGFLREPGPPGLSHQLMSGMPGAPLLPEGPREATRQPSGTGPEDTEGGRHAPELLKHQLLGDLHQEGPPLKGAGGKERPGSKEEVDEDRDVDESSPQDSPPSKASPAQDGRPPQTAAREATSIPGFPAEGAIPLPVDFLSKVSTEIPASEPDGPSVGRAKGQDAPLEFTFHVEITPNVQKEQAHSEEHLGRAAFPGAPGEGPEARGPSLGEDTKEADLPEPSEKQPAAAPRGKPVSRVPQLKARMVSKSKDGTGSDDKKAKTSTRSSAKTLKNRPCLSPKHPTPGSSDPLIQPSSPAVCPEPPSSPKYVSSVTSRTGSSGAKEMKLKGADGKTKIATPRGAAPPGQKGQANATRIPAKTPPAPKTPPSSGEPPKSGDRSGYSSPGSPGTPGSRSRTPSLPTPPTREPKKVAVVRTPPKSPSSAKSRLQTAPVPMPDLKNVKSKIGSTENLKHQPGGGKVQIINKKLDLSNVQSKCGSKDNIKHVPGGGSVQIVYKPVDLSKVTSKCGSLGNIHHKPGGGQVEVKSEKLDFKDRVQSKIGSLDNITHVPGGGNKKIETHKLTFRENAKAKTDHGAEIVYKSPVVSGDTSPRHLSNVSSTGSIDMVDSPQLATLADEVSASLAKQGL

| SMILES | Potency |
| --- | --- |
| COC(=O)/C(C#N)=C/c1c[nH]c2ccccc12 | inactive |
| CCCCOc1ccc(CNC(=O)c2ccc(-c3nc(CN4CCc5ccccc54)c(C)o3)cc2)cc1 | inconclusive: 1 µM [activator, full curve, poor fit] |
| O=c1cc(NS(=O)(=O)c2ccccc2)nc(SCc2c(Cl)cccc2Cl)[nH]1 | inconclusive: 3.55 µM [inhibitor, single point] |
| COC(=O)c1nn(-c2ccc(OC)cc2)c(=O)cc1NN | inconclusive: 35.5 µM [inhibitor, single point] |
| COc1ccc(/C=N/NC(=O)CC(=O)NCc2cccnc2)c(OC)c1 | inactive |
| N#Cc1c(N)[nH]c(=S)c(C#N)c1-c1ccccc1 | inconclusive: 0.126 µM [inhibitor, full curve, poor fit] |
| Cc1cc(C)c2c(=O)[nH]c(SCC(=O)Nc3ccccc3)nc2n1 | inconclusive: 35.5 µM [inhibitor, single point] |
| Cc1ccccc1N1CCN(S(=O)(=O)N(C)C)CC1 | inactive |
| Cc1cccc(N2CCC(N=CN(C)C)=N2)c1 | inconclusive: 11.2 µM [inhibitor, partial curve] |
| O=S(=O)(CCSc1nc2ccccc2s1)c1nc2ccccc2s1 | inactive |
| COC1=CC(=O)C(O)=C/C1=C\C=C\c1ccccc1 | active: 15.8 µM |
| Cc1c(NC(=O)Nc2ccc(Cl)c(Cl)c2)c(=O)n(-c2ccccc2)n1C | inconclusive: 17.8 µM [inhibitor, partial curve, poor fit] |
| Cc1ccc(-c2[nH]c(-c3ccc(Cl)cc3)nc2SCC(=O)NCC2CCCO2)cc1 (configuration not stated) | inactive |
| Cc1ccc2nc(NC(=O)CN(C)S(=O)(=O)c3ccc(Br)s3)sc2c1 | inconclusive: 25.1 µM [inhibitor, partial curve] |
| Cc1ccc(CNC(=O)C2c3ccccc3C(=O)N3CCc4ccccc4C23)o1 (configuration not stated) | inconclusive: 12.6 µM [inhibitor, partial curve] |
| N#Cc1c(-c2ccc(F)cc2)cc(-c2ccccc2)nc1SCC(=O)NCC(=O)O | inconclusive: 44.7 µM [inhibitor, single point] |
| Cc1ccccc1Nc1cc2ccccc2c(=O)[nH]1 | inconclusive: 25.1 µM [inhibitor, single point] |
| N#Cc1c(C(F)(F)F)cc(C2CC2)nc1N1CCCC1 | inactive |
| O=c1[nH]c(CN2CCN(c3ncccn3)CC2)nc2c(Br)cc(Br)cc12 | inconclusive: 22.4 µM [inhibitor, single point] |
| Cn1c(=O)[nH]c(=O)c2c1nc1n2CC(COc2ccc3ccccc3c2)O1 (configuration not stated) | inconclusive: 28.2 µM [inhibitor, single point] |
| COc1ccc(-c2[nH]c(-c3ccccc3)nc2SCC(=O)Nc2ccc3c(c2)OCCO3)cc1 | inconclusive: 2.82 µM [activator, single point] |
| COc1ccc(-c2cn[nH]c2-c2ccc(OCc3ccc([N+](=O)[O-])cc3)cc2O)cc1OC | inconclusive: 39.8 µM [inhibitor, single point] |
| CCN(CC)S(=O)(=O)c1ccc(N2CCOCC2)c(NC(=O)CCOc2ccccc2)c1 | inconclusive: 31.6 µM [activator, single point] |

| SMILES | Potency |
| --- | --- |
| Cc1ccc(CNC(=O)Nc2cn(CC(C)C)c(=O)c3ccccc23)cc1 | inactive |
| CCCCN1C(=O)/C(=C(/C#N)C(=O)N2CCCC2)c2ccccc21 | inactive |
| O=C(O)CSCc1cnn(-c2ccccc2)c1-n1cccc1 | inconclusive: 10 µM [activator, partial curve] |
| Cc1cc(C)c(NC(=O)CN2c3ccccc3S(=O)(=O)c3ccccc32)c(C)c1 | inactive |
| O=C1c2ccccc2C(=O)N1CCC(c1ccccc1)c1ccco1 (configuration not stated) | inconclusive: 20 µM [inhibitor, single point] |
| Cn1c(-c2ccc(=O)[nH]c2)nc2ccccc21 | inconclusive: 35.5 µM [inhibitor, single point] |
| COc1ccc(C2C(C(=O)Nc3ccccc3OC)=C(C)Nc3c(C(=O)Nc4ccccc4)cnn32)c(OC)c1 (configuration not stated) | inconclusive: 44.7 µM [inhibitor, single point] |
| O=C(Nc1ccc(Cl)cc1)/C(=C/c1cccc(O)c1)c1nc2ccccc2s1 | inconclusive: 25.1 µM [inhibitor, partial curve, poor fit] |
| COc1ccc(-c2cc(C(=O)Oc3cccc(C)c3)c3cc(C)ccc3n2)cc1 | inconclusive: 3.55 µM [inhibitor, single point] |
| O=C(CSCCN1C(=O)c2ccccc2C1=O)Nc1ccc2ccccc2c1 | inconclusive: 14.1 µM [inhibitor, partial curve] |
| Cc1cc(C)cc(-n2c(C)nc3cc(C(=O)NCc4ccccc4Cl)ccc32)c1 | inactive |
| CCOC(=O)c1c(N)sc2c(OC)c(Br)ccc12 | inactive |
| COc1cc2c(cc1NC(=O)COC(=O)[C@@H](NS(=O)(=O)c1cccc(Cl)c1)C(C)C)oc1ccccc12 | inconclusive: 17.8 µM [inhibitor, partial curve] |
| CC(=O)Nc1ccccc1-c1nc2ccccc2n(CC(=O)c2ccc(Br)cc2)c1=O | inactive |
| C[C@H]1C(c2ccccc2)=NN(c2ccccc2)[C@@H]1CO | inconclusive: 6.31 µM [activator, full curve, poor fit] |
| CCN(CC)S(=O)(=O)c1cccc(C(=O)Nc2cc3oc4ccccc4c3cc2OC)c1 | inconclusive: 1 µM [inhibitor, single point] |
| Cn1c(NC(=O)/C=C/c2ccc(Cl)c(Cl)c2)cc(=O)n(C)c1=O | inconclusive: 39.8 µM [inhibitor, single point] |
| CCOc1ccc(N2CC(C(=O)N/N=C/c3sccc3C)CC2=O)cc1 (configuration not stated) | inconclusive: 17.8 µM [inhibitor, single point] |
| COc1cc(C2C(=O)N(C3CCCCC3)CC(=O)N2CCC2=CCCCC2)ccc1OC(C)C (configuration not stated) | inactive |
| COc1cccc2cc(-c3nc(-c4cccs4)cs3)c(=O)oc12 | inconclusive: 4.47 µM [inhibitor, full curve] |
| CCN(CC)S(=O)(=O)c1ccc2[nH]cc(C(=O)NCCc3ccccc3)c(=O)c2c1 | active: 12.6 µM and active: 14.1 µM |
| COCCNC(=O)c1cccc(Nc2nc(-c3ccccc3)c3cc(Cl)ccc3n2)c1 | inconclusive: 3.16 µM [inhibitor, single point] |
| O=C(NCc1ccccc1Cl)c1ccc(Cn2c(=O)c3cccn3c3cccnc32)cc1 | inconclusive: 11.2 µM [inhibitor, partial curve] |

| SMILES | Potency |
| --- | --- |
| CCOC(=O)c1nc(Nc2ccc(C(=O)OC)cc2)c2ccccc2n1 | inconclusive: 12.6 µM [inhibitor, partial curve] and inconclusive: 28.2 µM [inhibitor, single point] |
| CCOC(=O)C1=C(N)Oc2ccc(Br)cc2C1C(C#N)C(=O)OCC (configuration not stated) | inactive |
| COc1ccc(-c2nn(-c3ccccc3)cc2/C=N/NC(=O)c2ccc(Br)o2)cc1 | inconclusive: 25.1 µM [inhibitor, single point] |
| CC(Cc1cccs1)NC(=S)Nc1ccc(Cl)cc1 (configuration not stated) | inconclusive: 22.4 µM [inhibitor, single point] |
| CCc1ccccc1NC(=O)c1ccc(=O)n(Cc2ccc(F)cc2)c1 | inactive |
| Cc1cn2c(=O)c(S(=O)(=O)N3CCN(c4cc(Cl)ccc4C)CC3)c(C)nc2s1 | inactive |
| CCOC(=O)c1c(C)oc2c1c(CN1CCN(CCO)CC1)c(O)c1ccccc12 | inconclusive: 0.562 µM [activator, full curve, poor fit] |
| CN(C)c1ccc(C2NCCS2)cc1 (configuration not stated) | inconclusive: 12.6 µM [inhibitor, partial curve] |
| COc1ccc(C(=O)NCc2n[nH]c(=S)n2-c2ccccc2)cc1OC | inconclusive: 8.91 µM [inhibitor, single point] |
| CC(=O)Nc1ccc(S(=O)(=O)Oc2ccc(C(=S)N3CCCCC3)cc2)cc1 | inconclusive: 35.5 µM [inhibitor, single point] |
| CCc1cc2cccc(C)c2nc1SCC(=O)c1ccc(NC(C)=O)cc1 | inconclusive: 8.91 µM [inhibitor, partial curve] |
| COc1ccc(CNS(=O)(=O)c2ccc(F)c(C(=O)Nc3ccccc3OC)c2)cc1 | inconclusive: 28.2 µM [inhibitor, single point] |
| COc1cc(CC(=O)Nc2ccc(Cl)c(C(F)(F)F)c2)cc(OC)c1OC | inconclusive: 14.1 µM [inhibitor, single point] |
| CC(C)(C)c1cc(O)c(C(C)(C)C)cc1O | inconclusive: 7.08 µM [inhibitor, full curve] |
| CC(C)c1ccccc1S(=O)(=O)c1cc(N)c2ncccc2c1[N+](=O)[O-] | inconclusive: 20 µM [inhibitor, single point] |
| Cc1nc2cc(NC(=O)Nc3ccc(Br)cc3)ccc2o1 | inconclusive: 20 µM [inhibitor, partial curve] |
| Cc1nc2scc(-c3ccco3)c2c(=O)n1/N=C/N(C)C | inconclusive: 28.2 µM [inhibitor, single point] |
| COc1ccc(CCNC(=O)Cn2cc(S(=O)(=O)Cc3ccccc3Cl)c3ccccc32)cc1OC | inactive |
| Cc1nnc2n(c1=O)N=C(c1ccc(Cl)cc1)CS2 | inconclusive: 8.91 µM [inhibitor, partial curve, poor fit] |
| CCOc1ccc(NC(=O)Cn2nnc(C(=O)NCCc3ccccc3)c2N)cc1 | inactive |
| CCOC(=O)/C(=C/C=C1\Sc2cc(OCC)c(OCC)cc2N1CC)C(C)=O | inactive |
